{
  "source": "the supplement of paper PMC3334620",
  "note": "In all, about 33,000 sequences were measured (“E-score (-0.5 to 0.5)”: median about -0.035, highest 2% from about 0.35 on). The list shows a part of the results.",
  "data": [
    {"molecular_target": "T1, Pdr3 (UniProt P33200)", "T1 sequence": "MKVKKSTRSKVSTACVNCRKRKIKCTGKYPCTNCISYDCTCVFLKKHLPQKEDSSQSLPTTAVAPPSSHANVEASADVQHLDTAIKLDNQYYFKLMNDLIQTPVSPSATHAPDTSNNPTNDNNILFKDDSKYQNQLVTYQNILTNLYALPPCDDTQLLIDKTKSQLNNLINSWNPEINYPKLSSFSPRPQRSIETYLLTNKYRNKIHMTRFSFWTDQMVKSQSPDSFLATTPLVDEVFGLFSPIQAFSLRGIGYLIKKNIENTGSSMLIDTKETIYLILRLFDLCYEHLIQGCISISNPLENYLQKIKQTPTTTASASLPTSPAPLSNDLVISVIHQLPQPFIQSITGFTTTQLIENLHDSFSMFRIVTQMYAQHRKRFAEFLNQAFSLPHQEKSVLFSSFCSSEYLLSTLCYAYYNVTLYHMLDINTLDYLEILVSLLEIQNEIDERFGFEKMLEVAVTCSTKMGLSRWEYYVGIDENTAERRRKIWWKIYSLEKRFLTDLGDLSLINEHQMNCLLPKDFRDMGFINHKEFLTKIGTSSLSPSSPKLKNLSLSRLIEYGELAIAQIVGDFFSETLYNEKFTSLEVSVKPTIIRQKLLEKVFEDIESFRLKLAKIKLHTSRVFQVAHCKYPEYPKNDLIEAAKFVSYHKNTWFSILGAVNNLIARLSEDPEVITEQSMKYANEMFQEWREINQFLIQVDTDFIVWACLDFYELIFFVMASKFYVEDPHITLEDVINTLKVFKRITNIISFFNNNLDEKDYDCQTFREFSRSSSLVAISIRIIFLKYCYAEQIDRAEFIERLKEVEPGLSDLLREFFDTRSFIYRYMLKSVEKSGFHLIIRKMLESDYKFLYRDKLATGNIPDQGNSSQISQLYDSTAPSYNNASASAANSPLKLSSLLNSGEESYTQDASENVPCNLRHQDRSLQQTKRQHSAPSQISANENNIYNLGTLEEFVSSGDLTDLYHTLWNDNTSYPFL", "assay": "PBM E-score (8-mer binding enrichment) (E-score (-0.5 to 0.5)); higher = stronger / more preferred TF binding; most listed sequences are background and not binding sites", "conditions": "protein concentration: 200 nM; construct: GST-full length", "method_in_brief": "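PURExpress in vitro transcription/translation supplied GST-tagged yeast transcription factors, either full-length or DNA-binding domain. Applied at about 100-200 nM to universal all-10-mer Agilent arrays double-stranded by primer extension, the bound protein was detected with fluorescent anti-GST. E-scores, modified Wilcoxon-Mann-Whitney statistics, were given by the Universal PBM Analysis Suite to ungapped eight-base words pooled with their reverse complements after masliner normalisation.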", "values": [
      {"sequence": "AATACAAA", "PBM E-score": 0.171},
      {"sequence": "TACAGTGA", "PBM E-score": -0.113},
      {"sequence": "AGCAAGGC", "PBM E-score": -0.0584},
      {"sequence": "CCAATCGC", "PBM E-score": 0.012},
      {"sequence": "TCCAGCCA", "PBM E-score": -0.241},
      {"sequence": "ACCCTTGG", "PBM E-score": -0.141},
      {"sequence": "TGCAGGCA", "PBM E-score": -0.203},
      {"sequence": "AGATGCTA", "PBM E-score": -0.165},
      {"sequence": "ACACGTGG", "PBM E-score": 0.0406},
      {"sequence": "AAATGCAT", "PBM E-score": 0.112},
      {"sequence": "ATGACAGG", "PBM E-score": -0.206},
      {"sequence": "CTGTCGGA", "PBM E-score": 0.261},
      {"sequence": "GGCATAAC", "PBM E-score": -0.133},
      {"sequence": "AACATGGG", "PBM E-score": 0.132},
      {"sequence": "ACAAGTCA", "PBM E-score": -0.14},
      {"sequence": "CGAAACAC", "PBM E-score": 0.127},
      {"sequence": "GACTTCCC", "PBM E-score": 0.0859},
      {"sequence": "GCTCGACA", "PBM E-score": -0.263},
      {"sequence": "CAGGCCTC", "PBM E-score": -0.218},
      {"sequence": "CACGATTC", "PBM E-score": 0.103},
      {"sequence": "AACAAGGC", "PBM E-score": -0.245},
      {"sequence": "CGCATAAC", "PBM E-score": 0.0802},
      {"sequence": "ATTACGTC", "PBM E-score": -0.161},
      {"sequence": "AACTTGCT", "PBM E-score": -0.142},
      {"sequence": "TATTCCGA", "PBM E-score": 0.407},
      {"sequence": "ACCTGGAG", "PBM E-score": -0.144},
      {"sequence": "TACTGCAA", "PBM E-score": -0.14},
      {"sequence": "ATCACGGC", "PBM E-score": 0.218},
      {"sequence": "GTTCCTGA", "PBM E-score": -0.0384},
      {"sequence": "AGTGACGC", "PBM E-score": 0.044},
      {"sequence": "AATATGAT", "PBM E-score": 0.108},
      {"sequence": "CGCTTTTA", "PBM E-score": 0.036},
      {"sequence": "ACGATCGA", "PBM E-score": -0.0056},
      {"sequence": "AGTGCAGC", "PBM E-score": 0.0987},
      {"sequence": "GCTTAACC", "PBM E-score": -0.222},
      {"sequence": "AACCACTA", "PBM E-score": -0.242},
      {"sequence": "GGACGGGA", "PBM E-score": 0.192},
      {"sequence": "GAGTAAGA", "PBM E-score": 0.0199},
      {"sequence": "CCGTCTCG", "PBM E-score": 0.19},
      {"sequence": "GTGCCGGA", "PBM E-score": 0.369},
      {"sequence": "CTAGAGGC", "PBM E-score": -0.289},
      {"sequence": "GCGCGTGA", "PBM E-score": 0.109},
      {"sequence": "AAAACCAC", "PBM E-score": -0.113},
      {"sequence": "GGGTACAC", "PBM E-score": -0.139},
      {"sequence": "CTCCATAC", "PBM E-score": -0.00794},
      {"sequence": "ACACTAGG", "PBM E-score": -0.0887},
      {"sequence": "GACGCTTA", "PBM E-score": -0.16},
      {"sequence": "GGCACGGA", "PBM E-score": 0.314},
      {"sequence": "CCTCTCTA", "PBM E-score": -0.295},
      {"sequence": "CTCTTGTA", "PBM E-score": -0.113},
      {"sequence": "GCTCCAGC", "PBM E-score": 0.0267},
      {"sequence": "AGTCGTAA", "PBM E-score": -0.0371},
      {"sequence": "GCCACGGC", "PBM E-score": 0.0607},
      {"sequence": "GGGAGCAA", "PBM E-score": -0.0166},
      {"sequence": "GAAGCTCC", "PBM E-score": 0.219},
      {"sequence": "CCCAAGCA", "PBM E-score": -0.0736},
      {"sequence": "CATACAGC", "PBM E-score": -0.205},
      {"sequence": "GGTAAAAA", "PBM E-score": 0.0643},
      {"sequence": "GCTAAAGA", "PBM E-score": 0.00571},
      {"sequence": "TCTGATAA", "PBM E-score": -0.0999},
      {"sequence": "TATCCAAA", "PBM E-score": -0.0382},
      {"sequence": "AAGGACAC", "PBM E-score": -0.105},
      {"sequence": "ACTGTCGC", "PBM E-score": 0.0823},
      {"sequence": "CACGCGGC", "PBM E-score": -0.00292},
      {"sequence": "CAATACTC", "PBM E-score": 0.0114},
      {"sequence": "ATGAGCTC", "PBM E-score": 0.0143},
      {"sequence": "CGATGGGC", "PBM E-score": 0.00151},
      {"sequence": "CTCTGTTC", "PBM E-score": 0.0293},
      {"sequence": "CTAGAAAA", "PBM E-score": -0.105},
      {"sequence": "GGATAATA", "PBM E-score": 0.233},
      {"sequence": "AAAGATTC", "PBM E-score": -0.0526},
      {"sequence": "AAGGTGAC", "PBM E-score": -0.155},
      {"sequence": "GTCGCAAC", "PBM E-score": 0.0702},
      {"sequence": "CTAACATA", "PBM E-score": -0.0761},
      {"sequence": "GGCTTCGA", "PBM E-score": -0.0956},
      {"sequence": "CACAAAGA", "PBM E-score": -0.149},
      {"sequence": "ACGTAGAT", "PBM E-score": -0.068},
      {"sequence": "AGGACCAC", "PBM E-score": -0.0788},
      {"sequence": "GATTCCAC", "PBM E-score": 0.19},
      {"sequence": "GTCCTTTA", "PBM E-score": -0.0651},
      {"sequence": "GGCGGGAC", "PBM E-score": 0.295},
      {"sequence": "ACCTCGTC", "PBM E-score": -0.0246},
      {"sequence": "CGCGCCAG", "PBM E-score": 0.11},
      {"sequence": "GTGCCTCA", "PBM E-score": -0.148},
      {"sequence": "GGTGGAAA", "PBM E-score": -0.048},
      {"sequence": "CACGGCGC", "PBM E-score": 0.222}
    ]}
  ]
}
